Source: paper PMC4336329 (PLoS ONE, 2015)
Screen size: about 310,000 compounds; about 14,000 (4.5%) showed an effect of 50% or more. The effect is printed as a negative number. This is one part of the list.

target: human ether-à-go-go-related gene (hERG) potassium channel (human, UniProt Q12809); experiment: primary screen, population patch clamp on CHO cells stably expressing hERG
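Further: peak tail current of the secondary pulse compared with the same well before compound.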

Sequence of human ether-à-go-go-related gene (hERG) potassium channel (Q12809 whole entry, looked up): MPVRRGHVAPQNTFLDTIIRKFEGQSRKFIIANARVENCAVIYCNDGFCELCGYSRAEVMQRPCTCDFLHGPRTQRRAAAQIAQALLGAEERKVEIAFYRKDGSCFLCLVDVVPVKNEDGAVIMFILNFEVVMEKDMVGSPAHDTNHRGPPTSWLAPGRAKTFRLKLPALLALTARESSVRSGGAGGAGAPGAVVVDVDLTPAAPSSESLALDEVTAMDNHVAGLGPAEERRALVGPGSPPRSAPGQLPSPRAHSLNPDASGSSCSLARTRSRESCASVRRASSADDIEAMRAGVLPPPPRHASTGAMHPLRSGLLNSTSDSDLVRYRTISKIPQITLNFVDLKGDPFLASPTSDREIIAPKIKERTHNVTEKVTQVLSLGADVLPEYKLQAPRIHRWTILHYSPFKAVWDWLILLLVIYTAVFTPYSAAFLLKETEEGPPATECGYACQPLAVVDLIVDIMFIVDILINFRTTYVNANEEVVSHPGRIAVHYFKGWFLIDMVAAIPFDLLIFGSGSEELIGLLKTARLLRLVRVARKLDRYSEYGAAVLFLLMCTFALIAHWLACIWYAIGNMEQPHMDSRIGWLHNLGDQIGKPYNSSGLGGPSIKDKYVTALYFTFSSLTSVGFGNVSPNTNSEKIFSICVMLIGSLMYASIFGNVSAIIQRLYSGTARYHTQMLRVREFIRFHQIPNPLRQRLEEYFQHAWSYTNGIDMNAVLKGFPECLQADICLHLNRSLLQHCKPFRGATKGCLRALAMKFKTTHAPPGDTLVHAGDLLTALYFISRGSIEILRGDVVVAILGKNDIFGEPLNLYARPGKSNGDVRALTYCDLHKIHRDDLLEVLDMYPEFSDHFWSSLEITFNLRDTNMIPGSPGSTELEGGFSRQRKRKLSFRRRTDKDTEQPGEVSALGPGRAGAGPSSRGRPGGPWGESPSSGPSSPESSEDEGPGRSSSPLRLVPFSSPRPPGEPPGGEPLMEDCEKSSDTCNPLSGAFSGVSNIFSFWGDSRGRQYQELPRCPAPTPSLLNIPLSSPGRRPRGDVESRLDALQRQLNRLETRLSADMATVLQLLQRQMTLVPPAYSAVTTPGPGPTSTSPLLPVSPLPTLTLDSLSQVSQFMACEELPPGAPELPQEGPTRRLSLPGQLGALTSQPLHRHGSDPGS

Structure (SMILES) | hERG current change (%, negative = inhibition) at 10uM
Cc1ccc(-n2ncc3c(=O)[nH]c(SC(C)C)nc32)cc1 | -11.2%
CCOC(=O)c1nc(NCc2ccccc2C)c2ccccc2n1 | -0.424%
Nc1cc(N2CCCCC2)c(Cl)cc1[N+](=O)[O-] | -10.8%
CCOc1ccccc1CNC(=O)CN1C(=O)CSc2ccc(S(=O)(=O)N3CCOCC3)cc21 | -11.4%
COc1ccc(-n2c(Cc3cccn3C)nnc2SCC(=O)Nc2ccccc2C)cc1 | -36.5%
CCC(=O)NNc1nc2c(C)cc(C)cc2s1 | 16.2%
O=C(O)c1cccc2c(/C=N/Nc3ccccn3)c[nH]c12 | -1.13%
COc1cccc(CNC(=O)c2ccc(NC(=O)CC3SC(N4CCCCC4)=NC3=O)cc2)c1 (stereo not shown) | -4.39%
CC1CN(C(=O)CSc2nnc(-c3ccncc3)n2-c2ccccc2)CC(C)O1 (stereo not shown) | 2.88%
CCN(CC)c1ccc(N)cc1S(=O)(=O)Nc1ccc(OC)cc1 | -4.91%
CCOC(=O)C(=O)Nc1nccs1 | 0.744%
Cc1onc(-c2ccc(Cl)cc2Cl)c1-c1csc(N/N=C/c2ccccc2)n1 | 12.4%
O=C(COc1coc(CN2CCN(c3ccccc3)CC2)cc1=O)Nc1cccc(F)c1 | 13.7%
CCN(CC)Cc1c(C(=O)N/N=C/c2ccncc2)nnn1-c1nonc1N | -55.9%
Cn1nccc1C(=O)Oc1cccc(/C=N/NC(=O)c2ccccc2O)c1 | 3.3%
CC(=O)N1c2ccc(S(=O)(=O)N3CCCCC3)cc2CC1C(=O)Nc1ccccc1C(F)(F)F (stereo not shown) | -16.8%
CCCn1c(=O)c(-c2nc3ccccc3[nH]2)c(O)c2ccccc21 | 2.18%
Cc1cc(C(=O)OCC(=O)Nc2ccccc2)c(C)o1 | 0.903%
CCOC(=O)/C(C#N)=C/C1=C(N2CCOCC2)C(C)(C)OCC1 | 7.58%
CCC(=O)N1CCc2cc(Br)cc(S(=O)(=O)N(C)c3ccc(OC)cc3)c21 | -23.5%

Structure (SMILES) | hERG current change (%, negative = inhibition) at 10uM
O=C(OCc1c(-c2ccccc2)ncc2ccccc12)N1CCOCC1 | -7.16%
Cc1ccc([N+](=O)[O-])cc1S(=O)(=O)NCCc1c(C)[nH]c2ccccc12 | -10.4%
CCCOc1ccc(C(=O)NNC(=S)NC(=O)c2cc(-c3ccccc3)nc3ccccc23)cc1 | 15.2%
O=C(N/N=C/c1ccccc1O)C1CC(=O)N(c2ccc(Cl)cc2)C1 (stereo not shown) | 8.21%
CC(=O)c1cccc(NC(=O)N2CCC(c3ccc(C)cc3)C2)c1 (stereo not shown) | -13.8%
COc1ccc2[nH]c(C(=O)N3CCC(n4nccc4NC(=O)C4CC4)CC3)c(C)c2c1 | -30.4%
COC(=O)C(O)(CC(=O)Nc1cc(Cl)ccc1Cl)C(F)(F)F (stereo not shown) | -0.106%
COc1ccc(S(=O)(=O)N2CCOCC2)cc1NC(=O)c1cc(C)oc1C | -17.4%
O=C(c1cc2ccccc2o1)N(C1CC1)C1(C(=O)Nc2ccccc2)CCCC1 | 2.52%
Cc1ccc(N=C2C(=O)Nc3ccccc32)cc1 | -1.19%
Cc1ccc(Cl)c2c1=NC(=O)C=2c1[nH]c(=S)[nH]c1O | 9.74%
O=C(NC(=S)NCc1cccnc1)c1ccccc1F | 13.2%
Cc1ccc(S(=O)(=O)Oc2ccc(/C=C(/NC(=O)c3ccccc3)C(=O)NCC(=O)O)cc2)cc1 | 16.7%
Cc1ccc(-c2noc(CCCC(=O)N3CCOCC3)n2)cc1 | -8.5%
Cc1cccc(C(=O)NCC(=O)OCC(=O)c2cc(C)n(CC3CCCO3)c2C)c1 (stereo not shown) | -12.1%
Cc1ccc(C)c(N=Cc2ccc(-c3ccc([N+](=O)[O-])cc3)o2)c1 | 14%
O=C(O)c1ccc(/C=N/Nc2cccc(C(F)(F)F)c2)cc1 | 52.8%
CSc1ccc(CCNC(=O)CCc2nnc3ccc(N4CCOCC4)nn23)cc1 | -8.52%
CN(C)S(=O)(=O)c1cccc(NC(=O)COC(=O)c2ccc([N+](=O)[O-])o2)c1 | -19%
COc1ccc(-c2csc(-c3cccs3)n2)cc1OC | 4.69%

Structure (SMILES) | hERG current change (%, negative = inhibition) at 10uM
COc1cccc(NC(=O)c2cc(=O)c3ccccc3o2)c1 | 8.64%
COc1ccc2c(c1)CCc1c(C(=O)Nc3c(C)nn(Cc4ccccc4)c3C)noc1-2 | 12.6%
CCCCN(C/C=C/c1ccccc1OC)Cc1ccccc1 | 3.47%
COc1ccc(C2C3=C(CC(C)(C)CC3=O)N(C)C3=C2C(=O)CC(C)(C)C3)cc1 | 6.47%
Cc1ccc(-c2csc3ncnc(-n4nc(C)cc4N)c23)cc1 | -3.89%
C=CCN(CC=C)C(=S)Nc1ccccc1 | 17%
COc1ccc(Br)cc1CNC(=O)CCc1nc(-c2ccc(C)cc2)no1 | 18.7%
CC(NC(=O)C1CCN(S(=O)(=O)c2cccc3nonc23)CC1)c1ccccc1 (stereo not shown) | 10.1%
CN(CC(=O)Nc1ccc(N2CCOCC2)cc1)CC(=O)Nc1ccc(C(F)(F)F)cc1 | -20.4%
Cc1c(C(=O)NCCCN2CCOCC2)sc2nc(-c3ccc(F)cc3)cn12 | -60.9%
CCC(C(=O)NCCc1ccccc1)c1ccccc1 (stereo not shown) | 8.57%
Cc1cccc(N2C(=O)N3[C@@H]4c5ccccc5OC[C@@H]4[C@@H](c4ccccc4)[C@]3(C)C2=O)c1 | 2.47%
O=C(/C=C\c1cccs1)N1CCN(Cc2ccc3c(c2)OCO3)CC1 | -57.8%
COc1ccc(OC)c(S(=O)(=O)NC(C)c2ccc(-n3ccnc3)cc2)c1 (stereo not shown) | -25.1%
Cc1ccc(-c2n[nH]c(=S)n2-c2ccccc2)cc1 | 11.8%
O=[N+]([O-])c1cc(S(=O)(=O)N2CCCCC2)ccc1NCc1cccc(Cl)c1 | 0.487%
Cc1nc2cc(NC(=O)NCCCO)ccc2o1 | 15.1%
CCCOc1ccc(C(CC(=O)O)NC(=O)CC(c2ccccc2)c2ccccc2)cc1 (stereo not shown) | 4.16%
